Article PMC4336329 (PLoS ONE, 2015)
Screen size: about 310,000 compounds; about 2,200 (0.71%) showed an effect of 50% or more. Effects have a minus sign here. This is one part of the list. Where a SMILES comes first, the peptide text is derived from it. [ ]: non-standard residue; d: D form. The star is where a group is joined. Cbz = O=C(OCc1ccccc1)*

Target: human ether-à-go-go-related gene (hERG) potassium channel (human, UniProt Q12809)
Assay: primary screen, population patch clamp on CHO cells stably expressing hERG

Chain of human ether-à-go-go-related gene (hERG) potassium channel (Q12809 whole entry, looked up): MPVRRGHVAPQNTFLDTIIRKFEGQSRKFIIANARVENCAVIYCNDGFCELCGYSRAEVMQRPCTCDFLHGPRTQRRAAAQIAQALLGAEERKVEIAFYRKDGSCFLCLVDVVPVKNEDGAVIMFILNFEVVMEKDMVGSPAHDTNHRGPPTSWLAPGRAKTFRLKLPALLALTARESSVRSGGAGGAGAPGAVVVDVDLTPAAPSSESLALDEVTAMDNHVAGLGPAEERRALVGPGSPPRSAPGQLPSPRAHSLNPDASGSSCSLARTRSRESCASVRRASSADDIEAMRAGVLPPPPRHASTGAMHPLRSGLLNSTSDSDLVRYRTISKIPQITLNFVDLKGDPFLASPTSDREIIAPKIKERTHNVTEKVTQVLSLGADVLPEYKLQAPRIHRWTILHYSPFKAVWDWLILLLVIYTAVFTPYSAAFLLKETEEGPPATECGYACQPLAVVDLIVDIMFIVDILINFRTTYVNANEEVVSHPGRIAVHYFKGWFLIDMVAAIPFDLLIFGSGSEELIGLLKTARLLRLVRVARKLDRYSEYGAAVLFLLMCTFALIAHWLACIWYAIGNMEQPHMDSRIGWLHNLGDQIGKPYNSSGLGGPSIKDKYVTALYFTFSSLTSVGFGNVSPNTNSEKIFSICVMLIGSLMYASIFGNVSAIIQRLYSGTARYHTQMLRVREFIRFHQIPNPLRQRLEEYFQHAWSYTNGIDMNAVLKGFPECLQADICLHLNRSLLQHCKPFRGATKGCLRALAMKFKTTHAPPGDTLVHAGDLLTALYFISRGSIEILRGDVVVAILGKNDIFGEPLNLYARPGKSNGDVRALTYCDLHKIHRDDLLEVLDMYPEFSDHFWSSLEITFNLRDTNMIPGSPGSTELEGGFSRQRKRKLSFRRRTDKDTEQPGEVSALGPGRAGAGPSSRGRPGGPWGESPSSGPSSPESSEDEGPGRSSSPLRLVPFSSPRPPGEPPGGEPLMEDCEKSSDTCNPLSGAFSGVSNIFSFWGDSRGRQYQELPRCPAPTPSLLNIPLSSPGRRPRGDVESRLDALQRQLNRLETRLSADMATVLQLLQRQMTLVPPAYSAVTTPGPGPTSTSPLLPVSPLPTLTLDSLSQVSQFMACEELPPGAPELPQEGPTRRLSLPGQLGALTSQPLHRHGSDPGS

Compound | hERG current change (%, negative = inhibition) at 1uM [%]
COC(=O)COc1ccc(C2NC(=O)NC(c3ccccc3)=C2C(C)=O)cc1OC (stereo not shown) | 14.5
COc1ccc(/C=N/NC(=O)Cc2ccc(Cl)cc2)cc1OC | 5.65
CN(C)C1(CNC(=O)C2CCN(S(=O)(=O)c3cc(Cl)ccc3Cl)CC2)CCCCC1 | -32.8
CC(=O)Nc1ccccc1-c1nc2ccc(C(=O)N3CCN(c4cc(C)ccc4C)CC3)cc2[nH]c1=O | 2.69
CC1C(=O)Nc2ccc(S(=O)(=O)N3CCN(c4ccccc4F)CC3)cc2NC1=O (stereo not shown) | -12.7
COc1ccc(Cn2c(C)c(C)c(C#N)c2NC(=O)Nc2cccc(Cl)c2)cc1 | 8.52
COc1ccc(N2CCN(C(=O)COC(=O)c3ccc(OC(F)F)cc3)CC2)cc1 | -5.89
COC(=O)c1ccc(COc2ccc(C=O)cc2)o1 | 6.14
O=C(Nc1ccccc1)c1ccc(S(=O)(=O)N2CCC(C(=O)O)CC2)cc1 | 19
Cc1ccc(C2C(C(=O)c3ccco3)=C(O)C(=O)N2c2ncccn2)cc1 (stereo not shown) | 9.03
COc1ccc(-n2cnnc2SCc2cnc(-c3ccccc3)s2)cc1 | 10.4
COCC(=O)Nc1nnc(Cc2ccc(OC)cc2)s1 | 10.5
CC(C)(C)C1CCC(=NNC(=O)c2ccccc2-n2cccc2)CC1 (stereo not shown) | 11.6
COc1ccccc1C(c1nnnn1C1CCCC1)N1CCN2CCCC2C1 (stereo not shown) | 0.609
CCCCn1c(N)c(N(CC)C(=O)C2=NN(c3ccccc3)C(=O)CC2)c(=O)[nH]c1=O | 12.6
COC(=O)[C@H](CCSC)NC(=O)[C@@H](Cc1cnc[nH]1)NC(=O)OCc1ccccc1 (Cbz-[dH]-Met-OMe) | 17.3
CC1CN(c2nc(Nc3ccccc3F)nc(N)c2[N+](=O)[O-])CC(C)O1 (stereo not shown) | -5.06
Cn1cccc1-c1nc2ccccc2n1C | 9.17
O=C(NNS(=O)(=O)c1ccc(F)cc1)c1ccccc1 | 15.9
CC(C)C(c1nnnn1C1CCCCC1)N1CCc2ccccc2C1 (stereo not shown) | 6.57
CN(c1ccccc1)S(=O)(=O)c1cccc(NC(=O)Cn2cnc3ccccc3c2=O)c1 | 3.98
Cc1ccc(S(=O)(=O)N(Cc2ccc(F)cc2)Cc2ccco2)cc1 | 12.5

Compound | hERG current change (%, negative = inhibition) at 1uM [%]
CCOC(=O)N1CCC(N(CCN(C)C)C(=S)Nc2ccccc2OC)CC1 | -6.5
CCN(CC)c1nc(-c2ccccc2)ncc1S(=O)(=O)c1ccc(C)cc1 | 12.9
COc1ccc(CNC(=O)CN(Cc2ccccc2)C(=O)c2csnn2)cc1 | -13.1
Cc1ccc(NC(=O)c2ccco2)c(NC(=O)C2CCCO2)c1 (stereo not shown) | 6.38
Cl.O=C(O)CNCC1COc2ccccc2O1 (stereo not shown) | -1.33
CCOC(=O)C1CCCN(c2ncnc3c2oc2ccccc23)C1.Cl (stereo not shown) | 4.28
O=C(Cc1ccccc1)Nc1ccccc1C(=O)NCC1CCCO1 (stereo not shown) | 10.1
CC(OC(=O)c1cc2c(ccc3ccccc32)oc1=O)c1nc2ccccc2s1 (stereo not shown) | 12.1
O=C(Nc1cccc2nsnc12)c1cccs1 | 23.3
C=C(C)CSc1nnc([C@@H](N)Cc2c[nH]c3ccccc23)o1.Cl | 6.8
Cc1ccccc1N1CC(C(=O)N2CCCCCC2)CC1=O (stereo not shown) | 4.84
CCCCc1nnc(NC(=O)C2CC(=O)N(c3ccc4c(c3)OCCO4)C2)s1 (stereo not shown) | 5.48
COc1cc(S(=O)(=O)NCCCn2ccnc2)ccc1F | 15.4
O=C(CNC(=O)c1cc(=O)[nH]c2ccccc12)Nc1ccc(F)c(F)c1 | 5.43
COc1ccc(N2C(=O)CC(Nc3ccc(F)cc3)C2=O)c([N+](=O)[O-])c1 (stereo not shown) | 10.2
COCCNC(=O)CCCn1c(=O)c2cc(OC)c(OC)cc2n(CC(=O)Nc2ccc(F)cc2)c1=O | 10.2
CC(C)(C)NS(=O)(=O)c1ccc(N2C(=O)c3ccccc3C2=O)cc1 | 5.85
Cc1c(-c2cc(Br)ccc2O)nc2cc3c(cc2c1C)OCO3.Cl | 9.02
CSc1ccccc1NC(=O)C1CC(c2c(F)cccc2Cl)=NO1 (stereo not shown) | 11.4
COc1ccc(Cl)cc1C(=O)CSc1nnnn1C1CCCC1 | 2.52
CCCCN(CCCC)CCNC(=O)CN1C(=O)CSc2ccc(S(=O)(=O)N3CCOCC3)cc21 | -3.76
O=C(NCc1ccc2c(c1)OCO2)c1ccc2snnc2c1 | 1.17

Compound | hERG current change (%, negative = inhibition) at 1uM [%]
CC(=O)Oc1ccc2nc(/C=C/c3ccccc3)oc(=O)c2c1 | 16.6
CC1=CC(c2ccccc2)n2ncnc2N1 (stereo not shown) | 3.76
CCN1CCN(c2ccc(NC(=O)c3ccc(OC)c(S(=O)(=O)N4CCCC4)c3)cc2)CC1 | 12.6
Cc1oc2ccc(NS(=O)(=O)c3ccccc3)cc2c1C(=O)Nc1ccccc1 | 34.4
COc1cc(C(=O)N[C@H](C(=O)NC2CCCCCC2)C(C)C)cc(OC)c1OC | -1.97
C=CCn1c(SCC(=O)NCc2ccco2)nc2sc3c(c2c1=O)CCC3 | 1.48
CCC1CCCCN1C(=O)COC(=O)c1cc2ccccc2cc1O (stereo not shown) | 14.5
O=C(Nc1cccc(NC(=O)c2sc3ccccc3c2Cl)c1)c1ccco1 | 3.79
Cc1c(C(=O)Oc2ccc(Cl)cc2)n(C)oc1=O | 13.1
CCC(C)COC(=O)C(C#N)c1nc2ccccc2nc1N1CCCCC1 (stereo not shown) | 0.759
CC(=O)Nc1ccc(S(=O)(=O)N2CCC(NC(=O)c3ccco3)CC2)cc1 | 9.57
NS(=O)(=O)c1ccc(NC(=S)NC2CC2)cc1 | 10.9
CCCCNC(=O)C1CCCN(S(=O)(=O)c2ccc(S(=O)(=O)NCC(C)C)cc2)C1 (stereo not shown) | -3.36
CCSc1nc2cc(OC)c(OC)cc2c(=O)n1CCc1ccccc1 | 2.31
O=C(COc1ccccc1)NCC(c1ccco1)N1CCN(c2ccc(F)cc2)CC1 (stereo not shown) | -2.86
O=C(Cn1cc2c(n1)CCCCC2)Nc1ccccc1Br | 5.69
N#Cc1ccc(CN2CCN(C(=O)c3cccc(S(=O)(=O)N4CCCCCC4)c3)CC2)cc1 | -51.3
O=S(=O)(Nc1ccccc1)c1ccc(NS(=O)(=O)c2c(F)cccc2F)cc1 | 7.94
O=C(C(NS(=O)(=O)c1cccs1)c1ccccc1)N1CCN(c2ccccc2F)CC1 (stereo not shown) | 5.15
Cc1[nH]nc(N=CC2=C(O)CC(C)(C)CC2=O)c1-c1ccccc1 | 6.06
N/C(=N\OC(=O)Cc1ccc(-c2ccccc2)cc1)c1ccccn1 | 14.3
Cc1cc(C(F)F)nn1CC(=O)Nc1cc([N+](=O)[O-])ccc1F | -2.48

Compound | hERG current change (%, negative = inhibition) at 1uM [%]
CCOC(=O)CSc1nnc(-c2c[nH]c3ccccc23)n1CC | -0.0361
CN(Cc1nccs1)C(=O)CC1C(=O)NCCN1Cc1ccc(-c2ccccc2)cc1 (stereo not shown) | 7.07
CCN(CC)S(=O)(=O)c1cc(-c2nn(C)c(=O)c3ccccc23)ccc1C | 3.5
CCCC1=C(C(=O)OCC)C(c2ccc(NC(C)=O)cc2)NC(=O)N1 (stereo not shown) | 0.486
Cc1cccc(CCNC(=O)COc2cc(=O)n(C)c3ccccc23)c1 | 6.76
CCC(Oc1ccccc1)C(=O)Nc1ccccn1 (stereo not shown) | 17.5
CCCNC(=O)Nc1ccc(F)c(Cl)c1 | 7.95
COc1cccc(C(C[N+](=O)[O-])c2c(C)[nH]n(-c3ccccc3)c2=O)c1 (stereo not shown) | 16
COc1ccccc1N1CCN(C(=O)C(=O)N/N=C/c2cccc(O)c2)CC1 | -0.578
COc1ccc(NC(=O)N2CCN(CCC#N)CC2)cc1 | 11.6
S=C(Nc1ccccc1Cl)Nc1ccc(Cl)cc1Cl | 12.4
O=C(COc1ccccc1)N1CCN=C1SCc1cccnc1 | 17.3
S=C(NC1CCCCC1)N1CCc2ccccc2C1 | 4.39
CCCc1c(C(=O)Nc2ccc(C(F)(F)F)cc2)cnn1-c1ccccc1 | 14.4
CCc1ccc(NC(=O)CN(c2ccc3c(c2)OCO3)S(=O)(=O)c2c(C)noc2C)cc1 | 9.89
CN(Cc1ccccc1)S(=O)(=O)c1nnc(NC(=O)c2ccccc2F)s1 | -5.25
O=C(NCc1cccs1)C1CCC(CNS(=O)(=O)c2cccs2)CC1 (stereo not shown) | 13.4
Cc1nc(NCC2CCCO2)c2nnn(Cc3c(F)cccc3Cl)c2n1 (stereo not shown) | 10.2
CC1CCCCC1NC(=O)COC(=O)Cc1ccc(Cl)cc1 (stereo not shown) | 13.8
c1ccc2nc(-c3nccs3)ccc2c1 | 1.85
Cc1ccc(-n2nc3c(=O)n(CCCC(=O)N4CCC(C(N)=O)CC4)nc(C)c3c2C)cc1 | 16.5
Cc1ccc(C(=O)NC2CC3CCCC(C2)N3Cc2ccccc2)cc1 (stereo not shown) | -6.55
